Read counts are not given, so values of variants with three or more changes are uncertain.

B1: OR4K15 (parent)
chain: GUUAACGGUCAUAGGCCAUGGAAACUAGGAGCACCAUUUCGCUGCCAGUGAAGAAAUGAACAAAGAAAAUCUGGGCCAGGCAGGCAUCAAAAGAAAUAGUCUUGCGCUCAACCAGAAAGUCUGUAAUCAUUUUAAGGGUA

The variants in the data set derive from B1. Kind of data set: self-cleavage, relative activity (ratio to wild type); higher = more cleavage; in vitro, sequencing; the parent is a self-cleaving ribozyme.
G58A U72C U103C: the self-cleavage was determined as 0.09.
Regarding A60U G75A G138A, the self-cleavage amounted to 0.09.
A60G A66G A95G: the self-cleavage was 1.36.
Regarding A59G A116G U120A, the self-cleavage stood at 0.41.
With A59C U108G A114U, the self-cleavage came to 0.01.
As for U57G U100C U102C U124C, the self-cleavage was 1.42.
A59G U122C A135G: the self-cleavage worked out at 1.14.
Consider A56G A66G U100C U130C, for which the self-cleavage worked out at 2.64.
In the case of U57C A68G A118G U139C it was 0.63.
With A60U U70C A78C A134G, the self-cleavage amounted to 0.23.
Take A56G A63G G79A A91G C107U U108A A116G A117G: the self-cleavage was 0.31.
In the case of A55U U100C U108C it was 0.01; in that of A60U A68U A69U, 2.56; in that of A59G G65A A111U, 0.05.
In the case of A56C U87G A117G A129U it was 0.09; in that of A60U A94G U131C, 1.26; in that of A56G A64G A116G, 0.89.
The same measure for A60G A82G A90C: 0.21.
Consider A60G A63U A69G A78G A126G U127A, for which the self-cleavage is 0.13.
A56G A59G A67G A96G: the self-cleavage came to 0.27.
In the case of A60G A68G A91G U108C, the self-cleavage came out at 0.01.
For A60C G119A U122C U132C, the self-cleavage was determined as 1.58.
For A59G A64G U132C, the self-cleavage came out at 0.65.
The same measure for A55G U97A G138C: 0.72.
Take A60G U120G U127C A129C U131C: the self-cleavage amounted to 0.59.
For the variant A59G U97C U124A, the self-cleavage is 0.48.
In the case of A59G A63G U108A G115A it was 0.02; in that of U57G U87A A89G, 0.37; in that of A56U U108C U130C, 0.
On to U57C A91G U127C, for which the self-cleavage stood at 0.51.
In the case of A59G A63G G80A it was 0.18; in that of A56G A59G A67G A118G U130C, 1.
The same measure for A56G A117G U122C: 1.52.
With U57A A62G A96G, the self-cleavage stood at 0.07.
Regarding A60G A86U A116G, the self-cleavage was 0.7.
For the variant A59G A110G A118G, the self-cleavage worked out at 0.13.
A59G A69G U70C: the self-cleavage amounted to 0.24.
On to A60U A66G C81A, for which the self-cleavage is 0.5.
Take G58U U100C A111G: the self-cleavage came to 0.01.
As to A59G C85U U87A U122C, the self-cleavage came to 0.65.
The same measure for A56G A94G U131C: 1.04; for A59G A68G A89U A117G U131C: 1.06; for A55G U108C A116G: 0.01.
A56G U87C U122A: the self-cleavage was 0.11.
In the case of U57A U72C U103C U127C, the self-cleavage was 0.01.
Consider A59G A63G A89G A129G, for which the self-cleavage came to 0.84.
Regarding U57A A66G G79A A114G U127C, the self-cleavage was determined as 0.02.
As to A59G U100C U108C U131C, the self-cleavage turned out to be 0.
The same measure for A56C A78U U108A U130C: 0.01; for A59G G73A U100C A118G A125G: 0.01.
On to A59G U87A U122C, for which the self-cleavage is 0.78.
In the case of U57A A63G U132C, the self-cleavage is 0.65.
In the case of A59G A67U A126C it was 1.65; in that of A56G A60G U72A A126U, 0.18; in that of A56G A63G U131C, 1.76.
Turning to A56G G73C A110U, the self-cleavage was found to be 0.05.
Turning to A60G U87C A114G U130C, the self-cleavage stood at 0.09.
On to A59G A66G U72C A86U, for which the self-cleavage is 0.45.
As to A59G U108G A110U A140G, the self-cleavage is 0.03.
As to A56G A66G C88A A118U, the self-cleavage turned out to be 1.34.
In the case of A59U U102C A111G U131C, the self-cleavage amounted to 0.
For the variant A56U A64G U72C U122C A140U, the self-cleavage amounted to 0.14.
Turning to A60G U87A A116G, the self-cleavage turned out to be 0.31.
In the case of A59G A96G A117G U132A it was 2.3; in that of A56G U87A U97A, 1.97.
For A60G A82U U124A, the self-cleavage stood at 0.12.
Regarding U57C U70C U102A, the self-cleavage was determined as 0.15.
A56U G104A U132A: the self-cleavage was 0.04.
On to A56C A59G A95G A110G C113U, for which the self-cleavage was 0.01.
As to A60G U70C A90G, the self-cleavage came to 0.58.
In the case of A56G U102C U122C it was 1.85.
As for G58A U100C U108A A114G, the self-cleavage came out at 0.02.
With A56G A78U A82G U100C U130C U132C, the self-cleavage is 0.61.
Turning to A60G A63G A114G A118G, the self-cleavage is 0.68.
For A56G U87C C113U, the self-cleavage was 0.18.
Consider A59G U97C U127C, for which the self-cleavage amounted to 0.93.
Regarding U57C A96G A117G, the self-cleavage amounted to 1.31.
On to A60C A66G A78U, for which the self-cleavage was 0.28.
In the case of A59G A90G U131C it was 1.21.
The same measure for A60G A78U A118G: 0.06; for A56G A60G A94G U102C U127C: 1.24; for U57C U72A G84C G99A G115A: 0.
Take U57C A64U G106C: the self-cleavage amounted to 0.01.
Regarding G58U A68G A94G U108C, the self-cleavage was determined as 0.01.
With A60G A92G U120A, the self-cleavage came out at 2.61.
Turning to A59G A94G U103C, the self-cleavage worked out at 0.84.
For U57C A92G U122C U127C, the self-cleavage was determined as 1.06.
Turning to A55U A66U U87C U122A, the self-cleavage was determined as 0.52.
In the case of A56G A117G U120C A134G, the self-cleavage came to 0.66.
As for U57C A116G U127C, the self-cleavage amounted to 0.16.
In the case of U57C A78G A134G, the self-cleavage was 0.2.
The same measure for A56G U72C U120C: 0.1; for G58A A59G U102A: 1.01.
On to G58A A59U A67G, for which the self-cleavage was found to be 0.68.
For the variant A56U C113U G119U U124C, the self-cleavage worked out at 0.11.
As for A60G A69U A135G A140G, the self-cleavage was found to be 2.47.
The same measure for A60G A67G A96U A117G A118G A135G U139A: 0.97; for A59G A89G U132C: 1.86.
As for A55U A60G A64G, the self-cleavage was 0.6.
On to A60U A91U U127A, for which the self-cleavage was determined as 1.8.
As to U57A U130C U132C, the self-cleavage was found to be 1.29.
For the variant A59G A62G A67C A110G A118U, the self-cleavage stood at 0.19.
Turning to A59G A82U A98U U120C, the self-cleavage came to 0.14.
U57C A78G A125G: the self-cleavage was 0.03.
As to A60G C85U A89G A91G A118U U139C, the self-cleavage came out at 0.09.
The same measure for A56G A67G A116G A118U: 0.38; for A60U G65A A114G U122C: 0.11.
As to A59G A62G U72A U127C, the self-cleavage amounted to 0.12.
The same measure for U57C A68U A116G: 0.69.
In the case of U57C A67G A116G, the self-cleavage was 0.61.
In the case of A56G G104C A126G it was 0; in that of A60G A86U U120G, 1.59; in that of A56G A89G A114U, 0.02.
The same measure for A60G A63G U70C U133C: 0.36; for A60G U102G U131C: 0.54.
Take A55U A78U G106A A110G U122C: the self-cleavage was 0.01.
In the case of A59G A94G A95G it was 0.74; in that of A60G A63G A91G A111G, 0.03; in that of A56G G80A A82G, 0.12.
A60G A63G G119A: the self-cleavage was 1.99.
A59G A69G A86G: the self-cleavage came out at 1.
In the case of A59G A67G A86U A92G U100C it was 1.83; in that of A56G A91U A94G A98G, 1.3; in that of A60G A94U A110U U120C, 0.84.
In the case of A60G A78C U87C A89U it was 0.07; in that of A56U A66G A116G U127C, 0.32.
For the variant U57C U70C U120C, the self-cleavage came to 0.16.
As for A56G A69G A95G, the self-cleavage was 1.17.
In the case of A59C U103C U122C U132C it was 0.36.
A56U A69G A96G A140G: the self-cleavage amounted to 1.81.
Take A56G A90G U100G: the self-cleavage is 1.35.
Take A56G G83U A86G U133C: the self-cleavage stood at 0.38.
Take A60U A64C U97C: the self-cleavage was determined as 1.71.
Consider A60U A117G U122C, for which the self-cleavage came to 1.24.
As for A60G A63G A86G, the self-cleavage is 1.42.
For A59G A86U A90G, the self-cleavage worked out at 0.7.
Take A60G A62U G84C U130C: the self-cleavage was 0.26.
With A56G A66G U120C, the self-cleavage was found to be 1.03.
Consider A56G A64G A69G A78G A95G U127A, for which the self-cleavage was determined as 0.4.
The same measure for A59U A96G U97C A116G: 0.13; for A59G A63G U70C A96G: 0.34; for U57C A92G U102C: 0.99.
As to A59G A68G U72C, the self-cleavage turned out to be 0.21.
In the case of A59G A96G U102C, the self-cleavage turned out to be 1.62.
In the case of A59U A60G A64G A118G U122C it was 1.91; in that of U57G A60G A92G, 0.27.
In the case of A56G U133A G137A it was 1.53; in that of A59U A82G A92U A98G, 0.25; in that of A59G A68G U120C U132A, 0.2.
Take A60U A86G A98G: the self-cleavage amounted to 0.18.
On to U57C A62U A69G A92G A111G, for which the self-cleavage was determined as 0.07.
Consider A56C A59G A68G, for which the self-cleavage is 0.42.
With A56G A60G G84U, the self-cleavage came out at 0.33.
In the case of U57C A91G U130C it was 0.54.
A60G U102C A114U: the self-cleavage came out at 0.06.
Turning to A60G A78G A111G, the self-cleavage was found to be 0.03.
Consider A56G A69G U132A, for which the self-cleavage came to 0.46.
For U57C C61U A91G, the self-cleavage was found to be 1.54.
For the variant A59G A82G A94G, the self-cleavage was 0.63.
Turning to A60G G83A A125U, the self-cleavage was determined as 2.35.
As to A59G U102C U133C, the self-cleavage was 1.48.
As to U57C A59U A110U, the self-cleavage amounted to 0.98.
As for A56G A98U U139C, the self-cleavage was 1.87.
A59G A63G U122C: the self-cleavage stood at 0.74.
In the case of A59G A63G U70C U120G A129G U130C it was 0.32; in that of A59C A110G A129U, 0.06; in that of A56U A64G U72C A89U, 0.23.

For the origin of these results see the RNAGym collection of RNA variant scans (doi:10.7554/elife.90254).
